In the supplement of paper PMC11880418:
Where a name gives a salt, the structure may show the parent alone. The list shows a part of the results. The data scatter; read single values as rough.

What follows are compounds tested on SUM159 (assay: ALDHbr (CSC) cell proportion score relative to DMSO vehicle (ratio to DMSO); breast (SUM159) / gastric (MKN45) / pancreatic (PANC1) / colon cancer lines; ALDHbr cells have high ALDH activity and are rich in cancer stem cells (CSC); higher = more CSC (ALDHbr) cells remaining). Conditions: 10 µM; 72 h.
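Note: High-content imaging of ALDEFLUOR-stained cells with Hoechst-labelled nuclei in 384-well plates, triplicate wells, scored as Z-score against 0.1% DMSO vehicle, negative meaning fewer ALDHbr cells.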

SMILES	ALDHbr
Clc1ccc2c(c1)CCc1cccnc1C2=C1CCNCC1 [Desloratadine]	0.649
COc1ccc2c(c1)c(CC(=O)OCC(=O)O)c(C)n2C(=O)c1ccc(Cl)cc1 [Acemetacin]	0.924
CCCc1nn(C)c2c(=O)[nH]c(-c3cc(S(=O)(=O)N4CCN(C)CC4)ccc3OCC)nc12 [Sildenafil]	0.992
CCOC(=O)C1=C(C)NC(C)=C(C(=O)OC)C1c1cccc([N+](=O)[O-])c1 (stereo not given) [Nitrendipine]	0.922
Cc1[nH]cnc1CN1CCc2c(c3ccccc3n2C)C1=O [Alosetron hydrochloride]	0.804
CO/N=C1\CN(c2nc3c(cc2F)c(=O)c(C(=O)O)cn3C2CC2)CC1CN (stereo not given) [Gemifloxacin mesylate]	1.17
CC(C(=O)O)c1ccc(C(=O)c2cccs2)cc1 (stereo not given) [Suprofen]	0.916
Nc1ccc(C(=O)O)c(O)c1 [4-aminosalicylic acid]	0.877
C[C@H]1[C@H](NC(=O)/C(=N\OC(C)(C)C(=O)O)c2csc(N)n2)C(=O)N1S(=O)(=O)O [Aztreonam]	0.966
COC(=O)C1=C(C)NC(C)=C(C(=O)OC2CCCN(Cc3ccccc3)C2)C1c1cccc([N+](=O)[O-])c1 (stereo not given) [Benidipine hydrochloride]	0.408
C[N+](C)(CCOc1ccccc1)Cc1ccccc1.O=C([O-])c1cc2ccccc2cc1O [Bephenium hydroxynaphthoate]	1.23
O=c1cc(-c2ccc(O)c(O)c2)oc2cc(O)cc(O)c12 [Luteolin]	2.51
CN(C)CCOC(c1ccccc1)c1ccccc1.Cn1c(=O)c2[nH]c(Cl)nc2n(C)c1=O [Dimenhydrinate]	1.03
CC(N)CCCC(C)(C)O (stereo not given) [Heptaminol hydrochloride]	0.962
COc1ccccc1OCC(O)CO (stereo not given) [Guaifenesin]	1.21
Cc1cccc(C)c1OCC(=O)N[C@@H](Cc1ccccc1)[C@@H](O)C[C@H](Cc1ccccc1)NC(=O)[C@H](C(C)C)N1CCCNC1=O [Lopinavir]	0.474
N=C(N=C(N)N)N1CCOCC1 [Moroxidine hydrochloride]	0.916
CC(=O)NCCCS(=O)(=O)O [Acamprosate calcium]	1.13
O=C1c2ccccc2S(=O)(=O)N1CCCCN1CCN(c2ncccn2)CC1 [Ipsapirone]	0.886
CN1C(C(=O)Nc2ccccn2)=C(O)c2sccc2S1(=O)=O [Tenoxicam]	1.13

SMILES	ALDHbr
CC1(C)[C@@H](OC(=O)CCC(=O)O)CC[C@]2(C)[C@H]3C(=O)C=C4[C@@H]5C[C@@](C)(C(=O)O)CC[C@]5(C)CC[C@@]4(C)[C@]3(C)CC[C@@H]12 [Carbenoxolone disodium salt]	0.988
CC(C)[C@H](N)C(=O)OCCOCn1cnc2c(=O)nc(N)[nH]c21 [Valacyclovir hydrochloride]	0.997
C[C@]12C[C@H](O)[C@H]3[C@@H](CCC4=CC(=O)CC[C@@]43C)[C@@H]1CC[C@@H]2C(=O)CO [Corticosterone]	0.768
COC(=O)C1=C(C)NC(C)=C(C(=O)OC(C)C)C1c1cccc2nonc12 (stereo not given) [Isradipine]	0.65
CN1CCN2c3ccccc3Cc3ccccc3C2C1 (stereo not given) [Mianserine hydrochloride]	0.699
Cc1cc(O)c(C(=O)N[C@@H](C(=O)N[C@@H]2C(=O)N3C(C(=O)O)=C(CSc4nnnn4C)CS[C@H]23)c2ccc(O)cc2)cn1 [Cefpiramide]	0.765
C=CCOC(Cn1ccnc1)c1ccc(Cl)cc1Cl (stereo not given) [Enilconazole]	1.03
c1ccc2[nH]c(-c3cscn3)nc2c1 [Tiabendazole]	1.54
COc1ccc(C[C@@H]2c3cc(OC)c(OC)cc3CC[N@+]2(C)CCC(=O)OCCCCCOC(=O)CC[N@@+]2(C)CCc3cc(OC)c(OC)cc3[C@H]2Cc2ccc(OC)c(OC)c2)cc1OC [Cisatracurium besylate]	0.314
CC(C)Cn1cnc2c(N)nc3ccccc3c21 [Imiquimod]	1.22
CCC(=O)O[C@@H](O[P@](=O)(CCCCc1ccccc1)CC(=O)N1C[C@H](C2CCCCC2)C[C@H]1C(=O)O)C(C)C [Fosinopril]	0.794
CN1CCN(c2c(F)cc3c(=O)c(C(=O)O)cn4c3c2SCC4)CC1 [Rufloxacin]	1.22
CN(C)CCC=C1c2ccccc2COc2ccccc21 [Doxepin hydrochloride]	0.697
C=C1/C(=C\C=C2/CCC[C@]3(C)[C@@H]([C@H](C)CCCC(C)C)CC[C@@H]23)C[C@@H](O)C[C@@H]1O [Alfacalcidol]	1.85
Cn1c(=O)c2c(ncn2CCO)n(C)c1=O [Etofylline]	0.895
Clc1ccc(COC(Cn2ccnc2)c2ccc(Cl)cc2Cl)c(Cl)c1 (stereo not given) [Miconazole]	1.12
Cc1c(F)c(N2CCNC(C)C2)cc2c1c(=O)c(C(=O)O)cn2C1CC1 (stereo not given) [Grepafloxacin]	0.827
Cc1nc2ccccn2c(=O)c1CCN1CCC(C(=O)c2ccc(F)cc2)CC1 [Pirenperone]	0.93
CNCC[C@@H](Oc1ccccc1C)c1ccccc1 [Tomoxetine hydrochloride]	1.18
CN(C)CCC=C1c2ccccc2CCc2ccccc21 [Amitryptiline hydrochloride]	0.767
